From the supplement of paper PMC8728848
The other results are listed elsewhere or left out.

Legend:
Test in all cases: glycan array binding signal (z-score within array); higher = stronger binding
Settings in all cases: glycan notation: IUPAC condensed, linker removed; mutation: H59Q
[1] = biological target: Gal(b1-4)GlcNAc(b1-3)Gal(b1-4)GlcNAc(b1-3)[Gal(b1-4)GlcNAc(b1-3)Gal(b1-4)GlcNAc(b1-6)]GalNAc
Summary of the method: (§1)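 Columns mapping to the same glycan were averaged after glycan names were converted to IUPAC-condensed notation. The data come from 3228 arrays in the Consortium for Functional Glycomics database, limited to those with an available protein sequence. Binding is reported as a within-array Z-score averaged across arrays of one protein sequence and across linkers.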

[2] = biological target: Gal(b1-4)GlcNAc(b1-3)Gal(b1-4)GlcNAc(b1-6)[Gal(b1-3)]GalNAc
Summary of the method: as §1

[3] = biological target: Gal(b1-4)GlcNAc(b1-3)Gal(b1-4)[Fuc(a1-3)]GlcNAc(b1-3)Gal(b1-4)[Fuc(a1-3)]GlcNAc
Summary of the method: as §1

[4] = biological target: Gal(b1-4)GlcNAc(b1-3)GalNAc
Summary of the method: as §1

[5] = biological target: Gal(b1-4)GlcNAc(b1-3)[Fuc(a1-3)GlcNAc(b1-6)]Gal(b1-4)Glc
Summary of the method: as §1

[6] = biological target: Gal(b1-4)GlcNAc(b1-3)[Gal(b1-4)GlcNAc(b1-6)]Gal(b1-4)GlcNAc
Summary of the method: as §1

[7] = biological target: Gal(b1-4)GlcNAc(b1-3)[GlcNAc(b1-6)]Gal(b1-4)GlcNAc
Summary of the method: as §1

[8] = biological target: Gal(b1-4)GlcNAc(b1-6)Gal(b1-4)GlcNAc
Summary of the method: as §1

[9] = biological target: Gal(b1-4)GlcNAc(b1-6)GalNAc
Summary of the method: as §1

[10] = biological target: Gal(b1-4)GlcNAc(b1-6)[Gal(b1-3)]GalNAc
Summary of the method: as §1

[11] = biological target: Gal(b1-4)GlcNAc(b1-6)[Gal(b1-4)GlcNAc(b1-3)]GalNAc
Summary of the method: as §1

Gal(b1-4)GlcNAc6P = biological target: Gal(b1-4)GlcNAc6P
Summary of the method: as §1

Gal(b1-6)Gal = biological target: Gal(b1-6)Gal
Summary of the method: as §1

Gal3S(b1-3)GalNAc = biological target: Gal3S(b1-3)GalNAc
Summary of the method: as §1

Gal3S(b1-3)GlcNAc = biological target: Gal3S(b1-3)GlcNAc
Summary of the method: as §1

[12] = biological target: Gal3S(b1-3)[Fuc(a1-4)]GlcNAc
Summary of the method: as §1

Gal3S(b1-4)Glc = biological target: Gal3S(b1-4)Glc
Summary of the method: as §1

Gal3S(b1-4)Glc6S = biological target: Gal3S(b1-4)Glc6S
Summary of the method: as §1

Gal3S(b1-4)GlcNAc = biological target: Gal3S(b1-4)GlcNAc
Summary of the method: as §1

[13] = biological target: Gal3S(b1-4)[Fuc(a1-3)]Glc6S
Summary of the method: as §1

[14] = biological target: Gal3S(b1-4)[Fuc(a1-3)]GlcNAc
Summary of the method: as §1

[15] = biological target: Gal3S(b1-4)[Fuc(a1-3)]GlcNAc6S
Summary of the method: as §1

Gal3S4S(b1-4)GlcNAc = biological target: Gal3S4S(b1-4)GlcNAc
Summary of the method: as §1

Gal3S6S(b1-4)GlcNAc = biological target: Gal3S6S(b1-4)GlcNAc
Summary of the method: as §1

Gal3S6S(b1-4)GlcNAc6S = biological target: Gal3S6S(b1-4)GlcNAc6S
Summary of the method: as §1

Gal4S(b1-4)GlcNAc = biological target: Gal4S(b1-4)GlcNAc
Summary of the method: as §1

Gal4S6S(b1-4)GlcNAc = biological target: Gal4S6S(b1-4)GlcNAc
Summary of the method: as §1

Gal6P(b1-4)GlcNAc = biological target: Gal6P(b1-4)GlcNAc
Summary of the method: as §1

Gal6S(b1-3)GlcNAc = biological target: Gal6S(b1-3)GlcNAc
Summary of the method: as §1

Gal6S(b1-3)GlcNAc6S = biological target: Gal6S(b1-3)GlcNAc6S
Summary of the method: as §1

Gal6S(b1-4)Glc = biological target: Gal6S(b1-4)Glc
Summary of the method: as §1

Gal6S(b1-4)Glc6S = biological target: Gal6S(b1-4)Glc6S
Summary of the method: as §1

Gal6S(b1-4)GlcNAc = biological target: Gal6S(b1-4)GlcNAc
Summary of the method: as §1

Gal6S(b1-4)GlcNAc6S = biological target: Gal6S(b1-4)GlcNAc6S
Summary of the method: as §1

GalNAc(a1-3)Gal = biological target: GalNAc(a1-3)Gal
Summary of the method: as §1

GalNAc(a1-3)GalNAc = biological target: GalNAc(a1-3)GalNAc
Summary of the method: as §1

[16] = biological target: GalNAc(a1-3)GalNAc(b1-3)Gal(a1-4)Gal(b1-4)Glc
Summary of the method: as §1

[17] = biological target: GalNAc(a1-3)GalNAc(b1-3)Gal(a1-4)Gal(b1-4)GlcNAc
Summary of the method: as §1

GalNAc(b1-3)Gal = biological target: GalNAc(b1-3)Gal
Summary of the method: as §1

[18] = biological target: GalNAc(b1-3)Gal(a1-4)Gal(b1-4)GlcNAc
Summary of the method: as §1

[19] = biological target: GalNAc(b1-3)Gal(a1-4)Gal(b1-4)GlcNAc(b1-3)Gal(b1-4)Glc
Summary of the method: as §1

[20] = biological target: GalNAc(b1-3)Gal(a1-6)Gal(b1-4)Glc
Summary of the method: as §1

GalNAc(b1-3)GalNAc = biological target: GalNAc(b1-3)GalNAc
Summary of the method: as §1

GalNAc(b1-3)GlcNAc = biological target: GalNAc(b1-3)GlcNAc
Summary of the method: as §1

GalNAc(b1-4)Gal(b1-4)Glc = biological target: GalNAc(b1-4)Gal(b1-4)Glc
Summary of the method: as §1

B1: rAAL-H59Q (Agrocybe aegerita), Q6WY08 (protein)
chain: MQGVNIYNISAGTSVDLAAPVTTGDIVTFFSSALNLNAGAGNPNNTTLNLFAENGAYLLQIAFRLQENVIIFNSRQPDGPWLVEQRVSDVANQFAGIDGKAMVTVFDHGDKYQVVINEKTVIQYTKQISGLTLSLSYNATEETSIFSTVVEAVTYTGLALEHHHHHH
[1]
  glycan array binding signal (z-score): 0.042
[2]
  glycan array binding signal (z-score): -0.05
[3]
  glycan array binding signal (z-score): -0.085
[4]
  glycan array binding signal (z-score): -0.087
[5]
  glycan array binding signal (z-score): -0.124
[6]
  glycan array binding signal (z-score): -0.086
[7]
  glycan array binding signal (z-score): -0.115
[8]
  glycan array binding signal (z-score): -0.156
[9]
  glycan array binding signal (z-score): -0.016
[10]
  glycan array binding signal (z-score): -0.072
[11]
  glycan array binding signal (z-score): -0.122
Gal(b1-4)GlcNAc6P
  glycan array binding signal (z-score): -0.091
Gal(b1-6)Gal
  glycan array binding signal (z-score): 0.039
Gal3S(b1-3)GalNAc
  glycan array binding signal (z-score): 7.76
Gal3S(b1-3)GlcNAc
  glycan array binding signal (z-score): 0.192
[12]
  glycan array binding signal (z-score): -0.051
Gal3S(b1-4)Glc
  glycan array binding signal (z-score): 0.7
Gal3S(b1-4)Glc6S
  glycan array binding signal (z-score): 0.468
Gal3S(b1-4)GlcNAc
  glycan array binding signal (z-score): 0.615
[13]
  glycan array binding signal (z-score): -0.092
[14]
  glycan array binding signal (z-score): -0.066
[15]
  glycan array binding signal (z-score): 0.694
Gal3S4S(b1-4)GlcNAc
  glycan array binding signal (z-score): -0.119
Gal3S6S(b1-4)GlcNAc
  glycan array binding signal (z-score): -0.115
Gal3S6S(b1-4)GlcNAc6S
  glycan array binding signal (z-score): 0.071
Gal4S(b1-4)GlcNAc
  glycan array binding signal (z-score): -0.143
Gal4S6S(b1-4)GlcNAc
  glycan array binding signal (z-score): -0.066
Gal6P(b1-4)GlcNAc
  glycan array binding signal (z-score): -0.061
Gal6S(b1-3)GlcNAc
  glycan array binding signal (z-score): -0.084
Gal6S(b1-3)GlcNAc6S
  glycan array binding signal (z-score): -0.113
Gal6S(b1-4)Glc
  glycan array binding signal (z-score): -0.105
Gal6S(b1-4)Glc6S
  glycan array binding signal (z-score): -0.085
Gal6S(b1-4)GlcNAc
  glycan array binding signal (z-score): -0.086
Gal6S(b1-4)GlcNAc6S
  glycan array binding signal (z-score): -0.14
GalNAc(a1-3)Gal
  glycan array binding signal (z-score): -0.082
GalNAc(a1-3)GalNAc
  glycan array binding signal (z-score): -0.015
[16]
  glycan array binding signal (z-score): -0.081
[17]
  glycan array binding signal (z-score): -0.072
GalNAc(b1-3)Gal
  glycan array binding signal (z-score): -0.125
[18]
  glycan array binding signal (z-score): -0.012
[19]
  glycan array binding signal (z-score): 0.002
[20]
  glycan array binding signal (z-score): -0.152
GalNAc(b1-3)GalNAc
  glycan array binding signal (z-score): -0.063
GalNAc(b1-3)GlcNAc
  glycan array binding signal (z-score): -0.014
GalNAc(b1-4)Gal(b1-4)Glc
  glycan array binding signal (z-score): -0.071
